± gives the standard deviation of the averaged measurements. The list shows a part of the results.

The values below come from the supplement of paper PMC11417369.

The test relates to PfAP2-I AP2 domain 3 (GST-tagged). The experiment in a line: gcPBM binding intensity (ln(normalized median fluorescence intensity)); higher = stronger DNA binding. The essentials:
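Using an Agilent 4 × 180k array, primer-extended double-stranded 36-bp intergenic genomic probes and negative controls were exposed for 1 h to GST-fused P. falciparum DNA-binding domains expressed in E. coli. Binding was carried out in 1× PBS with 1% milk, 0.2 mg/ml BSA, 0.5% salmon testes DNA and 0.03% Triton X-100, and protein was detected with Alexa488 anti-GST antibody and a 488 nm scan. Binding intensity is the highest Masliner-normalised natural-log median intensity across replicate spots of either probe orientation.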
“AATAATCATAGTTCTACACACCTATATTGCAAAAAA [CACACA_site867]”: the “gcPBM binding intensity (ln)” value is 8.08 ± 0.49. For “GGTTCATATATTAACACACACATACATATTATATAT [CACACA_site2937]” the value was 8.1 ± 0.47. As for “TGAGAGAGAAACGTAGTGCATAAAATCAAATTTAGA [GTGCAC_site9737]”, the figure is 10.6 ± 0.33; as for “TTATAAAAAATTTTAGTGCATATATGATTTATATAT [GTGCAC_site9831]”, 10.1 ± 0.33. For “TAATATGTATTTACAAGTACTAACAAAATATTAAAA [XGTACX_site3379]” the value was 7.79 ± 0.3; for “TACAAAAATAAATGTTGTACTATTATTTATTTCGAT [XGTACX_site1048]”, 7.45 ± 0.23. For “TTCATTAAATAGAACAAAATAATAATATAACAACAA [GTGCAC_negctrl_site116]”, the “gcPBM binding intensity (ln)” value was 7.74 ± 0.53.

For the sequence “TTAAAGATATACAAAAGTACTTTTTTTTTCGTCATT [XGTACX_site384]”, the “gcPBM binding intensity (ln)” value came to 7.58 ± 0.34.

Consider “CCATATCTTTTTTGCACACACTACAATAAAACAAAA [CACACA_site4995]”, for which the “gcPBM binding intensity (ln)” value stood at 9.95 ± 0.2.

Consider “ACATACATACACCCACGTACGTACCGAAACACCACC [XGTACX_site1212]”, for which the “gcPBM binding intensity (ln)” value stood at 8.9 ± 0.42.

On to “GATATAATGTGTTTGGTATTCTTGATAGATAGTTTT [CACACA_negctrl_site1711]”, for which the “gcPBM binding intensity (ln)” value is 7.7 ± 0.47. As for “ATGATGTCTTTATATTGTACATATATGAAGACGTTA [XGTACX_site7751]”, the figure is 7.79 ± 0.29; as for “TTTAAATAAAATATTACACACTTAGAAAAATATATA [CACACA_site3663]”, 7.42 ± 0.51. “ACTTCAAAAATAAACTGTACGTAAAAAAAAAAAAAA [XGTACX_site795]”: the “gcPBM binding intensity (ln)” value turned out to be 8.32 ± 0.31. For “TTTCTTTTTTTTTTTGTATATTAAATCTAAAAAGGA [TGCATGCA_negctrl_site431]” the value was 7.47 ± 0.3; for “TTTCGTAAAATGAAATGTACTCAAAAGTAAATATAA [XGTACX_site214]”, 7.63 ± 0.43; for “AAATTAAAATAATAATTCTACAAATTAATTTATCAT [XGTACX_negctrl_site44]”, 7.29 ± 0.51. For “TATCAAATGTATATATGTACTTATATTTTTTTTATA [XGTACX_site1501]” the value was 7.63 ± 0.27. As for “AATATATTTTCCTGCAAACACACATATAAATGTGTA [CACACA_site532]”, the figure is 8.37 ± 0.83; as for “TATATTACAAAAAGTACACACATAAATAAATACATA [CACACA_site975]”, 7.97 ± 0.22.

Regarding “ATGCTCAAAAGATATGCATGTACAAATATATGAAAT [TGCATGCA_site592]”, the “gcPBM binding intensity (ln)” value is 7.87 ± 0.68. Consider “TTTTATGATAATTTTGCACACACTTAGGAAAAATTA [CACACA_site1556]”, for which the “gcPBM binding intensity (ln)” value was 9.27 ± 0.099. For “TTTATTTAATTCATTGCATGTAATTTTTGTGTCCAC [TGCATGCA_site677]” the value was 7.83 ± 0.71.

For “TTAAAAAAAAATGGCACACATTTTAATTTTATGTTT [CACACA_site5035]”, the “gcPBM binding intensity (ln)” value worked out at 7.75 ± 0.33. For “AGAATAAAAAGGAACACACACACACGCATATAAATA [CACACA_site7659]” the value was 7.95 ± 0.49; for “GTAATATTATAATATACACACATAGAATATAAATAT [CACACA_site6333]”, 7.89 ± 0.29; for “TTCAAGATTTATTATACACACATATTAATATATATA [CACACA_site573]”, 8.01 ± 0.33. As to “AAAATACACCAACACACACACATATATATATATATT [CACACA_site4149]”, the “gcPBM binding intensity (ln)” value stood at 8.04 ± 0.38. For “TTATTTTTTCTTTTTTTTCTTACCACAAAAATGGAT [CACACA_negctrl_site362]” the value was 7.67 ± 0.76; for “ATTTATTTATATAATACACACAAATATCTTAATGAA [CACACA_site6064]”, 7.58 ± 0.29; for “ATTTTTTCTAATGGGTGTACTGAAACGTATTTTATT [XGTACX_site6573]”, 8.16 ± 0.58. As for “ATTTGTAATTATTAAACACACACAAAATATATATAA [CACACA_site8804]”, the figure is 7.81 ± 0.65. As for “AAAAAAAAAAAAAACACACACATATCTATAATATAT [CACACA_site7481]”, the figure is 8.1 ± 0.29; as for “TTGTGATTATATAATCGTACATAATTTTAATCACAC [XGTACX_site398]”, 7.81 ± 0.28; as for “CAAAACAAAGTTGCCGCACACAGATACGCACCCAAG [CACACA_site3455]”, 9.775 ± 0.078.

For the sequence “GAATATAAACATATTACACACATCTATATGTACTTT [CACACA_site8582]”, the “gcPBM binding intensity (ln)” value is 7.82 ± 0.67. For the sequence “AAATAAATATATATATGTACATACAAATACACGGTA [XGTACX_site8510]”, the “gcPBM binding intensity (ln)” value worked out at 7.92 ± 0.59. As for “AAGAAAAATGTCATATGATATCATATATTTTATAAT [TGCATGCA_negctrl_site296]”, the figure is 7.36 ± 0.54. As for “ATTTTCCCTTGTTTTACACACGTGCTGATATGAGAT [CACACA_site2164]”, the figure is 8.88 ± 0.99; as for “AATTATGCATTTGTCACACATATATATTACACTTGC [CACACA_site5324]”, 8.23 ± 0.49; as for “AAAAAAAAAAAAAAATGTACATTATACACATTATAT [XGTACX_site6824]”, 8.17 ± 0.31. For “TAGCCAAAATATAATTTACACACTTATTAAATAATT [CACACA_site7963]” the value was 7.46 ± 0.38; for “ATATAATATTGAGTTTGTACATATATATATGAAGAT [XGTACX_site4444]”, 7.88 ± 0.35. Turning to AAACAAATGTACAAAGTGCATATTTTTTTCAAAAGG, the “gcPBM binding intensity (ln)” value came out at 8.97 ± 0.085.
